These results are taken from the GPR68 mutational scans of Howard et al. (2025).

The labels stand for the following.
B1: GPR68, Q15743 (parent)
chain: MGNITADNSSMSCTIDHTIHQTLAPVVYVTVLVVGFPANCLSLYFGYLQIKARNELGVYLCNLTVADLFYICSLPFWLQYVLQHDNWSHGDLSCQVCGILLYENIYISVGFLCCISVDRYLAVAHPFRFHQFRTLKAAVGVSVVIWAKELLTSIYFLMHEEVIEDENQHRVCFEHYPIQAWQRAINYYRFLVGFLFPICLLLASYQGILRAVRRSHGTQKSRKDQIQRLVLSTVVIFLACFLPYHVLLLVRSVWEASCDFAKGVFNAYHFSLLLTSFNCVADPVLYCFVSETTHRDLARLRGACLAFLTCSRTGRAREAYPLGAPEASGKSGAQGEEPELLTKLHPAFQTPNSPGSGGFPTGRLA

The variants in series [1] derive from B1. The series can be described thus: cAMP reporter score (Enrich2 score, wild type = 0); higher = more signal; HEK293T, FACS bins.
Series [2] covers variants of B1. The series can be described thus: surface expression score (Enrich2 score, wild type = 0); higher = more signal; HEK293T, FACS bins.

The least precise scores are not listed. Two further conditions of the source, in which the scores hardly spread, are not listed. In variant names, del marks residues removed and ins residues inserted between the two positions. For some assays here: The data file names ogerin without a concentration.

Take L56_G57insGS: the cAMP reporter score in series [1] (pH 5.5) is -0.871; in series [1] (pH 6), -1.05; in series [1] (pH 6.5, modulator: ogerin) it was -1.57.
As for L56_V58del, the cAMP reporter score in series [1] (pH 5.5) is -1.45; in series [1] (pH 6) it was -1.22; in series [1] (pH 6, modulator: ogerin), -1.35; in series [1] (pH 6.5, modulator: ogerin) it was -0.758. In addition, in series [2], the surface expression score is -3.
For MGNITADNSSMSCTIDHTIHQTLAPVVYVTVLVVGFPANCLSLYFGYLQIKARNELGVCLCNLTVADLFYICSLPFWLQYVLQHDNWSHGDLSCQVCGILLYENIYISVGFLCCISVDRYLAVAHPFRFHQFRTLKAAVGVSVVIWAKELLTSIYFLMHEEVIEDENQHRVCFEHYPIQAWQRAINYYRFLVGFLFPICLLLASYQGILRAVRRSHGTQKSRKDQIQRLVLSTVVIFLACFLPYHVLLLVRSVWEASCDFAKGVFNAYHFSLLLTSFNCVADPVLYCFVSETTHRDLARLRGACLAFLTCSRTGRAREAYPLGAPEASGKSGAQGEEPELLTKLHPAFQTPNSPGSGGFPTGRLA [Y59C], the cAMP reporter score in series [1] (pH 5.5) was -0.88; in series [1] (pH 6), -0.319; in series [1] (pH 6, modulator: ogerin), -0.907; in series [1] (pH 6.5, modulator: ogerin) it was -0.769. Also, the surface expression score in series [2] is -0.528.
On to MGNITADNSSMSCTIDHTIHQTLAPVVYVTVLVVGFPANCLSLYFGYLQIKARNELGVALCNLTVADLFYICSLPFWLQYVLQHDNWSHGDLSCQVCGILLYENIYISVGFLCCISVDRYLAVAHPFRFHQFRTLKAAVGVSVVIWAKELLTSIYFLMHEEVIEDENQHRVCFEHYPIQAWQRAINYYRFLVGFLFPICLLLASYQGILRAVRRSHGTQKSRKDQIQRLVLSTVVIFLACFLPYHVLLLVRSVWEASCDFAKGVFNAYHFSLLLTSFNCVADPVLYCFVSETTHRDLARLRGACLAFLTCSRTGRAREAYPLGAPEASGKSGAQGEEPELLTKLHPAFQTPNSPGSGGFPTGRLA [Y59A], for which the cAMP reporter score in series [1] (pH 5.5) is -1.71; in series [1] (pH 6), -0.959; in series [1] (pH 6, modulator: ogerin) it was -1.24; in series [1] (pH 6.5, modulator: ogerin), -0.531. Moreover, in series [2], the surface expression score is -3.01.
Regarding MGNITADNSSMSCTIDHTIHQTLAPVVYVTVLVVGFPANCLSLYFGYLQIKARNELGVFLCNLTVADLFYICSLPFWLQYVLQHDNWSHGDLSCQVCGILLYENIYISVGFLCCISVDRYLAVAHPFRFHQFRTLKAAVGVSVVIWAKELLTSIYFLMHEEVIEDENQHRVCFEHYPIQAWQRAINYYRFLVGFLFPICLLLASYQGILRAVRRSHGTQKSRKDQIQRLVLSTVVIFLACFLPYHVLLLVRSVWEASCDFAKGVFNAYHFSLLLTSFNCVADPVLYCFVSETTHRDLARLRGACLAFLTCSRTGRAREAYPLGAPEASGKSGAQGEEPELLTKLHPAFQTPNSPGSGGFPTGRLA [Y59F], the cAMP reporter score in series [1] (pH 5.5) is 1.46; in series [1] (pH 6), -0.393; in series [1] (pH 6, modulator: ogerin), 0.691; in series [1] (pH 6.5, modulator: ogerin) it was -0.191. Also, in series [2], the surface expression score was -0.915.
As to MGNITADNSSMSCTIDHTIHQTLAPVVYVTVLVVGFPANCLSLYFGYLQIKARNELGVELCNLTVADLFYICSLPFWLQYVLQHDNWSHGDLSCQVCGILLYENIYISVGFLCCISVDRYLAVAHPFRFHQFRTLKAAVGVSVVIWAKELLTSIYFLMHEEVIEDENQHRVCFEHYPIQAWQRAINYYRFLVGFLFPICLLLASYQGILRAVRRSHGTQKSRKDQIQRLVLSTVVIFLACFLPYHVLLLVRSVWEASCDFAKGVFNAYHFSLLLTSFNCVADPVLYCFVSETTHRDLARLRGACLAFLTCSRTGRAREAYPLGAPEASGKSGAQGEEPELLTKLHPAFQTPNSPGSGGFPTGRLA [Y59E], the cAMP reporter score in series [1] (pH 5.5) was -1.54; in series [1] (pH 6), -0.268; in series [1] (pH 6, modulator: ogerin) it was -2.1; in series [1] (pH 6.5, modulator: ogerin), -0.059. In series [2], the surface expression score is -1.95.
Consider G57_Y59del, for which the cAMP reporter score in series [1] (pH 5.5) is -1.11; in series [1] (pH 6), -0.44; in series [1] (pH 6, modulator: ogerin), -2.04; in series [1] (pH 6.5, modulator: ogerin), -0.834. Besides, the surface expression score in series [2] was -2.1.
For V58_Y59del, the cAMP reporter score in series [1] (pH 5.5) was -1.33; in series [1] (pH 6.5, modulator: ogerin), -0.907. Moreover, the surface expression score in series [2] was -2.26.
On to L56_G57insGSG, for which the cAMP reporter score was -1.88 in series [1] (pH 5.5); -1.85 in series [1] (pH 6); -1.03 in series [1] (pH 6, modulator: ogerin); -1.48 in series [1] (pH 6.5, modulator: ogerin). For the same variant, the surface expression score in series [2] is -1.98.
